Assay results reported in PubChem BioAssay AID463173 (ICCB-Longwood Screening Facility, Harvard Medical School, 2010).
The whole screen tested about 52,000 compounds, of which about 1,700 (3.3%) were called active. No stated cut-off is given here; in the data, active means survival mostly below about 52% (no sharp cut-off); inactive means mostly above about 56%. This is one part of the list.

The compounds below were run on Wild type (assay: growth inhibition of S. aureus wild type versus tarO mutant, primary screen, teichoic acid synthesis inhibitors, RN4220, OD600 (AID 463173)). Conditions: S. aureus RN4220 wild type/DeltatarO growth, OD600, 18 h, hits give low values, screened at 18.75 µg/mL (by protocol).

Row | Structure (SMILES) | survival
1 | Cc1ccc(S(=O)(=O)N2CCN(Cc3noc(CCC(=O)N4CCCCC4)n3)CC2)c(C)c1 | inactive: 72%
2 | COc1ccc(C2CC(=O)N(Cc3ccc(F)cc3)c3ccccc3S2)cc1 (stereo not drawn) | inactive: 30%
3 | CN1CCN(CC(=O)N2CCCC2=O)CC1 | inactive: 93%
4 | CC(C)Cn1c(=O)c2sccc2n2c(CCCC(=O)NCCc3ccccc3)nnc12 | inactive: 98%
5 | COc1cccc(C(=O)NCC(=O)OCc2cc(=O)n3c(C)csc3n2)c1 | inactive: 80%
6 | O=C(NC1CCCCC1)N1CC=C(c2ccccc2)CC1 | inactive: 115%
7 | COc1cc(C(=O)Nc2ccc3[nH]c(=O)sc3c2)cc(OC)c1OC | inactive: 96%
8 | CC(C)C(=O)N1c2ncnn2C2(CCCCC2)[C@@H]2CCCC[C@@H]21 | inactive: 98%
9 | CC1=C(C(=O)Nc2cccnc2)C(c2cccc(F)c2)n2nc(SCc3ccccc3)nc2N1 (stereo not drawn) | inactive: 71%
10 | COc1cccc(NC(=O)Cn2c(=O)n(-c3ccc(Cl)cc3)c(=O)c3oc4ccccc4c32)c1 | inactive: 91%
11 | CCOc1ccc(NC(=O)CC2C(=O)N(c3ccccc3)C(=O)N2C2CCCCC2)cc1 (stereo not drawn) | inactive: 69%
12 | C1CN(C(N2CCOCC2)N2CCOCC2)CCO1 | inactive: 104%
13 | Cc1nc(Nc2ccc(Cl)cc2)cc(-c2ccccc2)n1 | active: -2%
14 | COc1ccc(CNC(=O)c2nc(SC(C)C)ncc2Cl)cc1 | inactive: 109%
15 | Cc1ccn2c(Nc3ccc4c(c3)OCO4)c(-c3ccc(N(C)C)cc3)nc2c1 | inactive: 90%
16 | COc1cccc(C2CC(=O)NC(SC)=C2C#N)c1 (stereo not drawn) | inactive: 107%
17 | O=c1c2cn[nH]c2nc(SCc2cccc(Br)c2)n1-c1ccc(Cl)cc1 | inactive: 127%
18 | COc1ccccc1CNC(=O)NCc1noc2ccc(C)cc12 | inactive: 77%
19 | O=C(COC(=O)c1ccco1)NCC1CCCO1 (stereo not drawn) | inactive: 101%
20 | CCOC(=O)c1c(-c2ccccc2)csc1NC(=O)c1cc(-c2ccc(Br)cc2)on1 | inactive: 77%

Row | Structure (SMILES) | survival
21 | Cc1nc2ccc(S(=O)(=O)CCC(=O)Nc3ccc(C)c(C)c3)cc2s1 | inactive: 113%
22 | CCN1C(=O)C2C(c3ccc(O)cc3)NC(CO)(C(=O)OC)C2C1=O (stereo not drawn) | inactive: 108%
23 | CCOc1ccc(CCNC(=O)CCc2c(C)nc3c(-c4ccccc4)c(C)nn3c2C)cc1OCC | inactive: 72%
24 | COCCCNC(=O)c1sc2nc3n(c(=O)c2c1C)CCC3 | inactive: 85%
25 | COc1ccccc1CNC(=O)CN1C(=O)COc2ccc(S(=O)(=O)N3CCC(C)CC3)cc21 | inactive: 85%
26 | O=C(Cn1cc(S(=O)(=O)N2CCCC2)c(S(=O)(=O)N2CCCC2)c1)Nc1cccc(F)c1 | inactive: 68%
27 | Cc1nc(Cc2ccc(OC(C)C)cc2)[nH]c(=O)c1CC(=O)O | inactive: 105%
28 | C=CCC(CC=C)(CNC(=O)C(=O)Nc1cc(C)ccc1OC)c1ccc(OC)c(OC)c1 | inactive: 92%
29 | CCOc1ccc(C2=NC(c3ccc(OC)cc3)=Nc3ccc(Cl)cc3N2)cc1 | inactive: 69%
30 | COc1ccc(Cn2c(=O)sc3ccccc32)cc1 | inactive: 111%
31 | O=C(NC1CC2CCCC(C1)N2Cc1ccccc1)C1CC1 (stereo not drawn) | inactive: 104%
32 | CCc1ccc(NC(=O)C(C)n2nnc3sc(-c4ccccc4)cc3c2=O)cc1 (stereo not drawn) | inactive: 97%
33 | COc1ccc(NC(=O)/C(C#N)=C/c2cc(C)n(-c3ccc(F)cc3)c2C)cc1 | inactive: 97%
34 | CCOC(=O)c1cccc(NC(=O)C2CCCN(S(=O)(=O)c3ccc4c(c3)oc(=O)n4C)C2)c1 (stereo not drawn) | inactive: 82%
35 | Cc1nc2nncn2c(NCc2ccc(Cl)cc2)c1C | inactive: 87%
36 | Cc1ccc(-n2c(=O)c3c4c(sc3n(Cc3cccc(Cl)c3)c2=O)CCC4)cc1C | inactive: 108%
37 | CC(C)C(=O)N(Cc1ccccc1)S(=O)(=O)c1ccc2c(c1)oc(=O)n2C | inactive: 82%
38 | Cc1ccc(Cl)cc1NC(=O)Cn1c(=O)n(CCCS(=O)(=O)C2CCCCC2)c(=O)c2ccccc21 | inactive: 55%
39 | Cc1csc2nc(COC(=O)c3ccccc3NC(=O)COc3ccccc3F)cc(=O)n12 | inactive: 83%
40 | Cc1nc2nc(SCC(=O)O)nn2c(C)c1Cc1c(F)cccc1Cl | inactive: 66%

Row | Structure (SMILES) | survival
41 | Cc1ccc(CN(C(=O)COc2ccc(Cl)c(C)c2)C2CCS(=O)(=O)C2)o1 (stereo not drawn) | inactive: 90%
42 | OCCNc1nc2ccccc2n1CCOc1ccccc1 | inactive: 115%
43 | C=CCn1c(-c2ccccc2)n[nH]c1=S | inactive: 105%
44 | COc1ccc(-c2c3c(=O)n(C)c(=O)n(C)c3c3c(-c4cccc(C)c4)nc4ccccc4n23)cc1 | inactive: 91%
45 | COc1ccc2cc3cc(C(=O)N4CCN(c5cccc(Cl)c5)CC4)sc3nc2c1 | inactive: 83%
46 | CCc1ccc(CCC(=O)Nc2ccc(S(N)(=O)=O)cc2)o1 | inactive: 127%
47 | COc1ccc(NS(=O)(=O)c2ccc3c(c2)CCN3C(=O)CCC(=O)O)cc1Cl | inactive: 73%
48 | COc1ccc(S(=O)(=O)NCCCO)cc1-c1nnc2c3ccccc3c(C)nn12 | inactive: 140%
49 | CCOc1ccc(NC(=O)Cn2cc(C(=O)c3ccc(CC)cc3)c(=O)c3cc(OC)c(OC)cc32)cc1 | inactive: 128%
50 | CCOC(=O)c1ccc2c(c1)N(C(CC)C(=O)Nc1ccccc1OC)C(=O)c1ccccc1S2 (stereo not drawn) | inactive: 75%
51 | Cc1ccc(NC(=O)Cn2nc(-c3ccncc3)ccc2=O)cc1Cl | inactive: 129%
52 | CC(C)CCNC(=O)CSc1nc2ccccc2nc1Cc1ccccc1 | inactive: 85%
53 | CCc1ccc(-n2c(=O)c3sc4ccccc4c3n(CC(=O)NC3CCCCC3)c2=O)cc1 | inactive: 83%
54 | CCC(C)C(=O)Nc1ccc(C(C)CC)cc1 (stereo not drawn) | inactive: 109%
55 | Cc1cc(NC(=O)CCS(=O)(=O)c2cc(Br)cc3c2N(C(=O)C2CC2)CC3)ccc1Br | inactive: 86%
56 | CCOC(=O)c1nc(Nc2ccc(C(C)=O)cc2)c2ccccc2n1 | inactive: 81%
57 | COc1cc2c(cc1OC)C(COc1ccc3c(C)cc(=O)oc3c1)N(C(=O)C(C)C)CC2 (stereo not drawn) | inactive: 93%
58 | COc1ccc(Cn2c(=O)c3cccnc3n(CC(=O)Nc3ccc(C)c(F)c3)c2=O)cc1 | inactive: 119%
